Measured values: PubChem BioAssay AID1345082 (National Center for Advancing Translational Sciences (NCATS), 2018)
Where “and” joins values, the source holds several entries; their conditions need not be identical. Equal values may be shown once. Among all 94,000 compounds or so, about 4,000 (4.3%) were called active. Inconclusive results, whose numbers are uncertain, are shown with a selection of clear calls. The call rests on the fitted dose curve; in most records, active means well fitted inhibition curve with a large enough effect; inconclusive means small, poorly fitted or top-dose-only effect; inactive means no such curve, though single readings can be large or run the other way. Where the call is inconclusive, the potency comes from a doubtful curve fit.

Assay: Cytotoxic Profiling in NIH 3T3 Cell Line of Diverse Libraries Using Quantitative High-Throughput Screening; further: nearly all actives have a fitted effect of over 55% in size
Settings: NIH 3T3 viability, CellTiter-Glo ATP luminescence, 48-72 h; series mostly up to 96.7 µM
In short: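 Cytotoxicity was measured by CellTiter-Glo ATP luminescence after 48 or 72 h compound exposure at 37 °C. Mouse NIH 3T3 fibroblasts were seeded at 400 cells/well and dosed by 23 nL pin transfer.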
Potency means the concentration at half of the fitted maximal effect; tags describe the fitted curve by direction and shape.

Row | Compound | Potency
1 | COc1cccc(N2C(=O)NC(=NC3CCCCC3)C23CCN([S+](=O)([O-])c2cccc(OC)c2)CC3)c1 | inactive
2 | COCCN1C(=O)c2cccn2CC1CNC(=O)c1ccc2ccccc2n1 (centres undefined) | inactive
3 | O=C1COCCN1c1cc(-c2cccc(F)c2)cn2cncc12 | inconclusive: 112 µM [inhibitor, single point]
4 | CCOc1ccc(-c2cc3c(=O)n(CCNC(=O)c4cccc(C#N)c4)ccn3n2)cc1 | inactive
5 | COc1cccc(NC(=O)c2cnc3c(c2)N(Cc2ccccc2)CCC3)c1 | inconclusive: 50.1 µM [inhibitor, partial curve, poor fit]
6 | COCCCNC(=O)c1c(C)noc1-c1cc(OC)cc(OC)c1 | inactive
7 | CN1CCOc2c(C(=O)NCc3cccnc3)cc(-c3ccccc3F)cc21 | inconclusive: 56.2 µM [inhibitor, partial curve, poor fit]
8 | CC(C)Cc1cc(C(=O)NCc2noc(-c3c(F)cccc3F)n2)no1 | inconclusive: 89.1 µM [inhibitor, single point]
9 | O=C1NC2(Cc3ccccc31)CN([S+](=O)([O-])c1ccccc1)C2 | inconclusive: 56.2 µM [inhibitor, partial curve, poor fit]
10 | O=[S+]1([O-])NCC2(CCCN(Cc3c(F)cccc3Cl)C2)Oc2ncccc21 (centres undefined) | inactive
11 | Cc1noc(C)c1[S+](=O)([O-])N1CCC2(COC(=O)N2Cc2ccccc2)C1 (centres undefined) | inconclusive: 89.1 µM [inhibitor, partial curve]
12 | Cn1ncc(N2CCC(CNC(=O)C3=Cc4ccccc4OC=C3)C2)cc1=O (centres undefined) | inconclusive: 50.1 µM [inhibitor, partial curve, poor fit]
13 | CNC(=O)c1noc(CN2CCCC(CCc3c(F)cccc3F)C2)n1 (centres undefined) | inactive
14 | O=C(c1cccc2[nH]ccc12)N1CCC2(CC1)CC(Cc1ccc(F)cc1)CCO2 (centres undefined) | inconclusive: 50.1 µM [inhibitor, partial curve, poor fit]
15 | CN(Cc1ccccc1)C(=O)c1ccc2c(c1)NC(C)(CNCc1ccccc1)CO2 (centres undefined) | active: 89.1 µM
16 | CN(C(=O)c1ccc2ccccc2n1)C1CCc2nn(CC3CC3)c(=O)n2CC1 (centres undefined) | inactive
17 | Cc1ccccc1CCC1CCCN(C(=O)CCc2ccncc2)C1 (centres undefined) | inconclusive: 11.2 µM [inhibitor, full curve]
18 | Cc1nn(-c2ccccc2)c2c1C(C(C)C)N(C1CCN(C(=O)c3ccccc3F)CC1)C2=O (centres undefined) | inconclusive: 50.1 µM [inhibitor, partial curve, poor fit]
19 | NC(=O)[C@H](Cc1ccc(O)cc1)NC(=O)C1=C[C@@H](NC(=O)CC2(CC(=O)O)CCCC2)[C@@H](O)[C@H](O)C1 | inactive
20 | O=C(NCc1ccccc1Cl)c1noc(-c2ccc3c(c2)OCO3)n1 | inconclusive: 50.1 µM [inhibitor, partial curve, poor fit]
21 | COc1cccc(Nc2ccc3c(n2)C(C)(C(=O)NCCc2cnc[nH]2)CN(C)C3)c1 (centres undefined) | inconclusive: 100 µM [inhibitor, partial curve, poor fit]
22 | CCOC(=O)C(C)Oc1cccn2c(=O)c(-c3cc(C)n(-c4ccc(Cl)cc4)n3)c(C)nc12 (centres undefined) | inactive

Row | Compound | Potency
23 | COc1ccc(C2Cn3nnc(C(=O)N4CCC(C(=O)Nc5cc(C)cc(C)c5)CC4)c3CO2)cc1 (centres undefined) | active: 44.7 µM
24 | CN1CC2(CCN(c3ccc(C#N)cn3)CC2)CC(c2ccccc2)C1=O (centres undefined) | inconclusive: 28.2 µM [inhibitor, full curve, poor fit]
25 | COCC(=O)N1CCN(c2nccc(Nc3ccccc3OC)n2)CC1 | inactive
26 | CC(C)CCN1CCCN(CCN(C)C)c2ccccc21 | inconclusive: 44.7 µM [inhibitor, partial curve, poor fit]
27 | COCCNC(=O)c1cc2n(n1)CC(c1ccc(Br)cc1)OC2 (centres undefined) | inconclusive: 44.7 µM [inhibitor, partial curve, poor fit]
28 | COCCOC1CCOC2(CCN(C(=O)Nc3ccc(OC)cc3)CC2)C1 (centres undefined) | inactive
29 | COCCN1CCC2(C1)CN(C)c1ccc(C(=O)NCc3ccccc3)cc12 (centres undefined) | inconclusive: 89.1 µM [inhibitor, single point]
30 | COc1ccc(-c2cc(N3CCCC(NC(=O)c4cc5ccccc5[nH]4)C3)n[nH]2)cc1 (centres undefined) | inconclusive: 14.1 µM [inhibitor, partial curve, poor fit]
31 | Cc1ncc(CN2CCCC2C(=O)Nc2ccc(-c3cccc(F)c3)cc2)n1C (centres undefined) | inconclusive: 79.4 µM [inhibitor, partial curve]
32 | O=C(c1ccc(C2CCNC2)cc1)N(Cc1ccccc1)CC1CCC1 (centres undefined) | inconclusive: 79.4 µM [inhibitor, partial curve, poor fit]
33 | CN(Cc1nccn1C)C(=O)c1csc2nc(-c3ccc(C(F)(F)F)cc3)cn12 | inconclusive: 56.2 µM [inhibitor, partial curve, poor fit]
34 | Cc1noc(C)c1C(=O)N1CC(CN2C(=O)c3c(c(C)nn3-c3ccccc3)C2C2CC2)C1 (centres undefined) | inconclusive: 50.1 µM [inhibitor, partial curve, poor fit]
35 | CC(NC(=O)COc1ccc(F)cc1F)c1ccccc1-n1cccn1 (centres undefined) | inactive
36 | CC(C)Cc1ccc(CN2CCC3(CC2)Cc2ccccc2CNC3=O)cc1 | active: 25.1 µM
37 | N#Cc1cccc(CN2CC(COc3ccccc3)C3(C2)CN(c2ccccc2)C3)c1 (centres undefined) | inconclusive: 89.1 µM [inhibitor, partial curve, poor fit]
38 | Cc1cc2nc(CO[C@H]3CN(Cc4ccc(S(C)(=O)=O)cc4)C[C@H]3F)[nH]c2cc1C | inactive
39 | CCc1ccc(CN2CCC(Oc3ccc4ccccc4c3)(C(=O)O)CC2)nc1 | inactive
40 | CN(Cc1cccc2cnccc12)C(=O)c1cc(COc2ccccc2F)[nH]n1 | inconclusive: 39.8 µM [inhibitor, partial curve, poor fit]
41 | CSc1cccc(NC(=O)c2cc3c(N4CCSCC4)nc(C)cn3n2)c1 | inconclusive: 10 µM [inhibitor, full curve, poor fit]
42 | CCn1ncc(N2CCCC(CC(=O)NCc3ccccc3)C2)cc1=O (centres undefined) | inactive
43 | CCNC(=O)C1C(c2cccc(NC(=O)c3ccc(OC)cc3)c2)OC(=O)N1Cc1ccc(C)cc1 (centres undefined) | inconclusive: 50.1 µM [inhibitor, single point]
44 | COc1ccc(CNc2ncnc3c2CN(C2CCCNC2)C(=O)CN3C)cc1OC (centres undefined) | inactive

Row | Compound | Potency
45 | Cc1ccncc1-c1c(C)nn2c1N(Cc1cccc(OC(F)(F)F)c1)CCC2 | inconclusive: 22.4 µM [inhibitor, full curve, poor fit]
46 | Cc1nc2c(c(-c3ccc(Cl)cc3)n1)CCN([S+](=O)([O-])c1cccc(C(F)(F)F)c1)CC2 | inactive
47 | CC1Oc2ccc(NC(=O)CC(C)(C)C)cc2CN(CCc2ccccc2)C1=O (centres undefined) | inconclusive: 50.1 µM [inhibitor, partial curve, poor fit]
48 | NCCCC(=O)N1CCC2(CC1)CN(C(=O)Cc1ccc(Cl)cc1)CCO2 | inconclusive: 70.8 µM [inhibitor, single point]
49 | Cc1cc(=O)n(CC(=O)Nc2ccc(F)cc2)c(N2CCC(C)CC2)n1 | inconclusive: 39.8 µM [inhibitor, partial curve, poor fit]
50 | Cc1noc(C)c1[S+](=O)([O-])NC1CCCN(CCn2nc3n(c2=O)CCCC3)C1 (centres undefined) | inactive
51 | COc1cccc(CN2CCN(c3nc4c(s3)c(C)nn4C)CC2=O)c1 | inconclusive: 7.94 µM [inhibitor, full curve, poor fit]
52 | O=C(NCC(F)F)c1nc2cccnc2n(C2CC2)c1=O | inactive and inconclusive: 63.1 µM [inhibitor, partial curve, poor fit]
53 | CCNC(=O)N1CCOc2ccc(CCC(=O)NCC3CC3)cc2C1 | inactive
54 | CNC(=O)[C@H]1C[C@]2(CCCCN(C)C2=O)N(C(C)=O)[C@H]1c1ccco1 | inactive
55 | Cc1noc2c(N(C)C)cc(-c3cccc(C(F)(F)F)c3)nc12 | inconclusive: 25.1 µM [inhibitor, full curve]
56 | COC[C@H]1CCCN1Cc1nc(C2(O)CCN(CC3CCCCC3)CC2)cs1 | inconclusive: 70.8 µM [inhibitor, partial curve, poor fit]
57 | CCCCc1nc2cc(C(=O)N3CC(Oc4ccccc4OC)C3)ccc2o1 | inconclusive: 50.1 µM [inhibitor, partial curve, poor fit]
58 | O=C(c1c(F)cccc1F)N1CCC(n2cc(-c3nc(-c4ccccc4)no3)nn2)CC1 | inconclusive: 56.2 µM [inhibitor, partial curve, poor fit]
59 | Cc1nnc2ccc(N3CCC(NC(=O)c4ccccc4)C3)nn12 (centres undefined) | inactive
60 | O=C(c1ccoc1)N1CC(c2nnc(-c3ccncc3)o2)C2(CCOCC2)C1 (centres undefined) | inactive
61 | Cc1cc2nc3n(c(=O)c2n1CC(=O)NCCc1ccc(Cl)cc1)CCC3 | inconclusive: 50.1 µM [inhibitor, single point]
62 | Cc1ccc(-c2nc(C3CC(=O)N(C4CCCCC4)C3)no2)cc1 (centres undefined) | inconclusive: 44.7 µM [inhibitor, partial curve, poor fit]
63 | CCOc1cc(=O)n2c(c1C(=O)Nc1ccc(C)cc1Cl)CCCC2 | inconclusive: 50.1 µM [inhibitor, partial curve, poor fit]
64 | COc1ccccc1-c1ccc(C(=O)N2CCC(N[S+](=O)([O-])c3ccccc3)CC2)cc1 | inconclusive: 50.1 µM [inhibitor, partial curve, poor fit]
